Test results published in the supplement of paper PMC8728848.
The other results are listed elsewhere or left out.

Experiments:
Experiment in all cases: glycan array binding signal (z-score within array); higher = stronger binding
Details in all cases: glycan notation: IUPAC condensed, linker removed
[1] = molecular target: GalNAc(a1-3)GalNAc(b1-3)Gal(a1-4)Gal(b1-4)GlcNAc
Method in brief: (§1)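 The binding signal is a Z-score computed within each array. Data were drawn from 3228 arrays in the Consortium for Functional Glycomics database, restricted to those with a known protein sequence. Scores were averaged over arrays of the same protein sequence at different concentrations or buffers, and over linkers, and negative values can be taken as non-binding.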

[2] = molecular target: GalNAc(b1-3)Gal
Method in brief: as §1

[3] = molecular target: GalNAc(b1-3)Gal(a1-4)Gal(b1-4)GlcNAc
Method in brief: as §1

[4] = molecular target: GalNAc(b1-3)Gal(a1-4)Gal(b1-4)GlcNAc(b1-3)Gal(b1-4)Glc
Method in brief: as §1

[5] = molecular target: GalNAc(b1-3)Gal(a1-6)Gal(b1-4)Glc
Method in brief: as §1

[6] = molecular target: GalNAc(b1-3)GalNAc
Method in brief: as §1

[7] = molecular target: GalNAc(b1-3)GlcNAc
Method in brief: as §1

[8] = molecular target: GalNAc(b1-4)Gal(b1-4)Glc
Method in brief: as §1

[9] = molecular target: GalNAc(b1-4)GlcNAc
Method in brief: as §1

[10] = molecular target: GalNAc(b1-4)GlcNAc(b1-2)Man
Method in brief: as §1

[11] = molecular target: GalNAc(b1-4)GlcNAc(b1-2)Man(a1-3)[GalNAc(b1-4)GlcNAc(b1-2)Man(a1-6)]Man(b1-4)GlcNAc(b1-4)GlcNAc
Method in brief: as §1

[12] = molecular target: GalNAc(b1-4)GlcNAc(b1-3)GalNAc(b1-4)GlcNAc
Method in brief: as §1

[13] = molecular target: GalNAc(b1-4)GlcNAc6S
Method in brief: as §1

[14] = molecular target: GalNAc(b1-6)GalNAc
Method in brief: as §1

[15] = molecular target: GalNAc3S(b1-4)GlcNAc
Method in brief: as §1

[16] = molecular target: GalNAc3S(b1-4)GlcNAc3S
Method in brief: as §1

[17] = molecular target: GalNAc3S(b1-4)[Fuc(a1-3)]GlcNAc
Method in brief: as §1

[18] = molecular target: GalNAc4S6S(b1-4)GlcNAc
Method in brief: as §1

[19] = molecular target: GalNAc6S(b1-4)GlcNAc
Method in brief: as §1

[20] = molecular target: Glc(a1-4)Glc
Method in brief: as §1

[21] = molecular target: Glc(a1-4)Glc(a1-4)Glc(a1-4)Glc
Method in brief: as §1

[22] = molecular target: Glc(a1-6)Glc(a1-6)Glc
Method in brief: as §1

[23] = molecular target: Glc(a1-6)Glc(a1-6)Glc(a1-6)Glc
Method in brief: as §1

[24] = molecular target: Glc(b1-4)Glc
Method in brief: as §1

[25] = molecular target: Glc(b1-6)Glc
Method in brief: as §1

[26] = molecular target: GlcA(b1-3)Gal
Method in brief: as §1

[27] = molecular target: GlcA(b1-3)GlcNAc
Method in brief: as §1

[28] = molecular target: GlcA(b1-6)Gal
Method in brief: as §1

[29] = molecular target: GlcA3S(b1-3)Gal(b1-4)GlcNAc(b1-2)Man
Method in brief: as §1

[30] = molecular target: GlcA3S(b1-3)Gal(b1-4)GlcNAc(b1-3)Gal(b1-4)Glc
Method in brief: as §1

[31] = molecular target: GlcNAc(a1-3)Gal(b1-4)GlcNAc
Method in brief: as §1

[32] = molecular target: GlcNAc(a1-4)Gal(b1-3)GlcNAc
Method in brief: as §1

[33] = molecular target: GlcNAc(a1-4)Gal(b1-4)GalNAc
Method in brief: as §1

[34] = molecular target: GlcNAc(a1-4)Gal(b1-4)GlcNAc
Method in brief: as §1

[35] = molecular target: GlcNAc(a1-4)Gal(b1-4)GlcNAc(b1-3)Gal(b1-4)Glc
Method in brief: as §1

[36] = molecular target: GlcNAc(a1-4)Gal(b1-4)GlcNAc(b1-3)Gal(b1-4)GlcNAc
Method in brief: as §1

[37] = molecular target: GlcNAc(a1-4)Gal(b1-4)GlcNAc(b1-3)Gal(b1-4)GlcNAc(b1-3)Gal(b1-4)GlcNAc
Method in brief: as §1

[38] = molecular target: GlcNAc(a1-4)Gal(b1-4)GlcNAc(b1-3)Gal(b1-4)[Fuc(a1-3)]GlcNAc(b1-3)Gal(b1-4)[Fuc(a1-3)]GlcNAc
Method in brief: as §1

B1: DrGal9 (Danio rerio) (protein)
chain: MAFYQQPPYYNPRIPFSGPIQGGLQDGKSIIISGRVLPGANRFHVNLQCGSHSEANVALHFNPRYEDTDYVVNNSYLNRTWGSEERKYESPFAQGQTFTLQILVAQDKYKISTNGRHFMDYKHRIPFTQVDTVAVEGMVEVNSVAFQNPAGFIPPQAGYAPQYAVPPGCGFPAFPSAPNYTIPHKTVMNGGLHPGKNIVINGVVNPNAKSIIFNLCYRSGIAFHYNPRFDENVVVRNTNQMEKWGAEERFGGLPFHKGQPFQVTISCNPQHYNVFVNGKQEHTYKHRYTKLNDIDILEICGDLQLTSVQA
[1]
  glycan array binding signal (z-score): -0.377
[2]
  glycan array binding signal (z-score): -0.193
[3]
  glycan array binding signal (z-score): -0.2
[4]
  glycan array binding signal (z-score): 0.311
[5]
  glycan array binding signal (z-score): -0.378
[6]
  glycan array binding signal (z-score): -0.385
[7]
  glycan array binding signal (z-score): -0.023
[8]
  glycan array binding signal (z-score): -0.4
[9]
  glycan array binding signal (z-score): -0.147
[10]
  glycan array binding signal (z-score): 0.067
[11]
  glycan array binding signal (z-score): -0.361
[12]
  glycan array binding signal (z-score): 0.116
[13]
  glycan array binding signal (z-score): -0.116
[14]
  glycan array binding signal (z-score): -0.414
[15]
  glycan array binding signal (z-score): 0.261
[16]
  glycan array binding signal (z-score): -0.34
[17]
  glycan array binding signal (z-score): -0.396
[18]
  glycan array binding signal (z-score): -0.387
[19]
  glycan array binding signal (z-score): -0.41
[20]
  glycan array binding signal (z-score): -0.354
[21]
  glycan array binding signal (z-score): -0.385
[22]
  glycan array binding signal (z-score): -0.382
[23]
  glycan array binding signal (z-score): -0.402
[24]
  glycan array binding signal (z-score): -0.395
[25]
  glycan array binding signal (z-score): -0.405
[26]
  glycan array binding signal (z-score): -0.375
[27]
  glycan array binding signal (z-score): 0.506
[28]
  glycan array binding signal (z-score): -0.412
[29]
  glycan array binding signal (z-score): -0.111
[30]
  glycan array binding signal (z-score): 0.201
[31]
  glycan array binding signal (z-score): -0.37
[32]
  glycan array binding signal (z-score): -0.402
[33]
  glycan array binding signal (z-score): -0.409
[34]
  glycan array binding signal (z-score): -0.398
[35]
  glycan array binding signal (z-score): -0.148
[36]
  glycan array binding signal (z-score): -0.212
[37]
  glycan array binding signal (z-score): -0.11
[38]
  glycan array binding signal (z-score): -0.37
